We go through 172 sequences from PMC6212790.

This is one part of the list. At the low end of the ranking the order means little.

This test deals with T1, GST-Rok-C97-191 (UniProt O34857).
T1 sequence: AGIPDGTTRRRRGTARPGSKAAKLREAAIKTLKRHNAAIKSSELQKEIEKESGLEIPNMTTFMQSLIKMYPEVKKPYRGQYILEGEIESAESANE
The test can be described thus: protein binding microarray.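 Also: rank score from −0.5 (least bound) to 0.5 (best bound).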 The note with it: Rok is a gene silencer of Bacillus subtilis; high values mean tight binding; most listed sequences are background and not binding sites; double strand, one strand shown.
In turn, AAGGATCT gave a binding signal of -0.124 E-score. Consider AGTCCTGC, for which the binding signal is -0.192 E-score. Regarding ACGGGCAG, the binding signal was -0.281 E-score.

ACGCCGAT: the binding signal was -0.0711 E-score. To GCACAAAC belongs -0.0175 E-score; to CGAAAAAG, -0.0409 E-score; to GACAAAAA, -0.0639 E-score.

For AGACAATC, the binding signal was -0.00319 E-score. As for CTATTTTC, the figure is 0.306 E-score. As for GATTGGAA, the figure is -0.158 E-score; as for CTACTTAA, 0.387 E-score. As for AGCTATCC, the figure is 0.0879 E-score; as for ATGCCGGA, -0.0636 E-score. ACCCACTC returned a binding signal of 0.0773 E-score.

AGTACTTG displayed a binding signal of 0.296 E-score. As for AGGTTATC, the figure is 0.265 E-score; as for AATCACCA, -0.0157 E-score; as for ACAGTACG, 0.0386 E-score.

In the case of CACCATAC, the binding signal was -0.0719 E-score. Turning to AAGGTTTC, the binding signal was -0.0614 E-score. The sequence TAGGATGA yielded a binding signal of 0.0835 E-score. To GGGAAGAA belongs -0.0777 E-score; to CAGGCGGC, -0.327 E-score. For the sequence GCTTCAGA, the binding signal was -0.332 E-score. The sequence CAGTGTAG yielded a binding signal of 0.215 E-score.

The sequence GCACACAC gave a binding signal of -0.149 E-score.

In turn, ACACAGAT displayed a binding signal of -0.0308 E-score.

Sequence AGAAAGAT came in with a binding signal of 0.227 E-score. As for AAATTTCG, the figure is 0.14 E-score; as for AACTATAC, 0.253 E-score; as for CAGGTGAG, -0.0457 E-score. Regarding ATTAGTCG, the binding signal is 0.102 E-score. Turning to ACATCATC, the binding signal was -0.0643 E-score.

Consider GACCTAAA, for which the binding signal was -0.106 E-score. To CGATGGGC belongs -0.132 E-score. Turning to GTGCACGA, the binding signal was -0.0372 E-score. As for GCAAGACA, the figure is -0.106 E-score.

On to ACCTACTG, for which the binding signal was determined as 0.238 E-score. Turning to AGGACCGA, the binding signal is -0.168 E-score. In turn, AACAATAT showed a binding signal of 0.213 E-score.

As to GACGGCAA, the binding signal was -0.139 E-score. Turning to GGCTCTAA, the binding signal was found to be 0.0743 E-score. To ACCTAGGG belongs -0.0515 E-score; to ACCCTGAG, -0.185 E-score; to AACCACCC, -0.103 E-score. As for AAAGTAGA, the figure is 0.298 E-score. As for CACGTACG, the figure is -0.0431 E-score; as for GTCTTGAA, -0.321 E-score; as for CGTAGCAC, 0.0655 E-score. The sequence AGTCTGGG displayed a binding signal of -7.1e-05 E-score. To CCCATTAA belongs -0.208 E-score; to CTGCTAAC, 0.0377 E-score. To CTAGTCAA belongs 0.13 E-score; to AAAATAGT, 0.404 E-score; to CGTGGACA, -0.191 E-score.

With CATAATAA, the binding signal came out at 0.281 E-score. In turn, GGGACGAC displayed a binding signal of 0.0648 E-score. To CGCAAAAC belongs 0.0693 E-score; to ACAGTTCA, 0.0612 E-score. To ACGGTAGA belongs 0.318 E-score; to GATTGTAC, 0.365 E-score; to AACGTAGC, -0.0321 E-score.

CTCGCTTC had a binding signal of -0.182 E-score. As for AAAACAGT, the figure is 0.297 E-score; as for ACAAAGAT, -0.034 E-score. CTCGGTAA showed a binding signal of -0.0167 E-score. As for AGCCCTAT, the figure is -0.0404 E-score; as for AATCTAAT, 0.254 E-score; as for ACACACTA, 0.211 E-score. CGTGAATC: the binding signal turned out to be 0.0549 E-score. TACTGTCA gave a binding signal of 0.16 E-score. On to ATAATAGC, for which the binding signal is 0.259 E-score. ACAATACT: the binding signal is 0.107 E-score.

ATACTACA showed a binding signal of 0.388 E-score. To CCCCTGAG belongs -0.271 E-score; to GCGATACA, 0.0374 E-score. AACCCAGG returned a binding signal of -0.149 E-score.

For the sequence CCATGTTC, the binding signal came to 0.00686 E-score. To GGAATATA belongs 0.377 E-score; to CTTCAACA, -0.103 E-score; to CTAGATGC, 0.0124 E-score. To AGGTGCAT belongs 0.0374 E-score; to CTACCTTC, 0.0707 E-score. As for CTTAAATC, the binding signal is -0.0598 E-score. As for AACTGTTG, the figure is -0.0852 E-score; as for ATACAGAT, 0.168 E-score; as for GCTATCAA, 0.168 E-score. To GCAACAAC belongs 0.0446 E-score; to AACGTGTC, 0.0055 E-score; to GGCATCAA, -0.236 E-score. To ATAAGGAG belongs 0.0222 E-score. Consider ACCCTGCA, for which the binding signal was -0.0879 E-score. The sequence GACGGAGC had a binding signal of -0.262 E-score.

For the sequence CATAGCTA, the binding signal came out at 0.304 E-score. In turn, CTTTGAAC displayed a binding signal of -0.0169 E-score. In the case of CTGTCTCA, the binding signal was -0.118 E-score. In turn, AATGCAGG gave a binding signal of 0.0503 E-score. Take CCTTGTTA: the binding signal is -0.147 E-score. GCCTGAAA yielded a binding signal of -0.0289 E-score.

Sequence ACGAAGAG registered a binding signal of -0.048 E-score. With GGTCACTA, the binding signal is -0.0834 E-score. As for AGGTCATG, the figure is -0.0161 E-score. AAACCCTG displayed a binding signal of -0.212 E-score. To AGTGCCAG belongs -0.235 E-score. The sequence TCTCAAAA registered a binding signal of 0.1 E-score.

Regarding AGATGCCT, the binding signal was -0.203 E-score. Consider CCTAACCG, for which the binding signal was -0.379 E-score.

AAGACGGA: the binding signal is -0.0799 E-score. CGGGCAAG had a binding signal of -0.286 E-score. On to AGCAGCTC, for which the binding signal was -0.148 E-score.

For AATGCTCA, the binding signal was -0.15 E-score. In turn, GCCAGACA registered a binding signal of -0.257 E-score.

As for CCGGACTC, the binding signal is -0.122 E-score. As for AGCCTTCG, the figure is -0.302 E-score. To GTGTGGAA belongs -0.0936 E-score; to ACATACGG, 0.126 E-score. To GGCTCTCA belongs -0.362 E-score; to CACGCGCC, -0.365 E-score; to TTACGTAA, 0.261 E-score. In turn, GACGAATC showed a binding signal of -0.0921 E-score.

Take TATTGCAA: the binding signal came out at 0.175 E-score. In the case of AAAACAAG, the binding signal worked out at 0.0357 E-score.

Sequence CTATCCCC gave a binding signal of -0.133 E-score. In turn, ATGTAACC registered a binding signal of -0.106 E-score. Sequence AACTCAAA gave a binding signal of 0.05 E-score.

In the case of TCCTGACA, the binding signal is -0.0157 E-score. Consider AGTAAGAT, for which the binding signal came to 0.169 E-score. As for ATGGTACA, the figure is 0.199 E-score; as for CGAGTGGC, -0.178 E-score. As for AGGTGCGG, the figure is -0.307 E-score; as for CTTTTAAC, 0.0914 E-score. To AGTCGTAA belongs 0.125 E-score; to AAAAATGT, 0.129 E-score. With ATCAACGC, the binding signal was -0.0258 E-score. In the case of GATAAAGC, the binding signal was -0.0584 E-score.

TCTTTACA yielded a binding signal of 0.0871 E-score.

The sequence CAGTCGGA returned a binding signal of -0.205 E-score. The sequence GATAGAGA came in with a binding signal of 0.104 E-score. ATAGCAAG showed a binding signal of 0.0644 E-score. To CTATGCGA belongs 0.118 E-score; to TATGAGAA, 0.0666 E-score. To CCTCTGTC belongs -0.166 E-score. Turning to AGTACGAC, the binding signal was 0.074 E-score. As for CTCGAATC, the figure is -0.145 E-score. ACCACCAA registered a binding signal of -0.0739 E-score. In turn, ATATTCGC gave a binding signal of 0.0955 E-score.

ACTTCCAT gave a binding signal of -0.0388 E-score. To GCCACCGC belongs -0.0587 E-score. As for CCTTTCAA, the figure is -0.171 E-score; as for TTCAGAAA, -0.153 E-score. As for GTACAGTA, the figure is 0.283 E-score; as for AGCTCCCC, -0.277 E-score. Take ACGGAATC: the binding signal was found to be 0.187 E-score. To AGATGGAC belongs -0.183 E-score. As for GCCAGCGA, the figure is -0.311 E-score; as for CCCCGGCA, -0.136 E-score. To CGTCCGTA belongs -0.0633 E-score; to CGGGGACA, -0.205 E-score. Consider GGCGACCC, for which the binding signal is -0.372 E-score.

CTTAACTC returned a binding signal of 0.118 E-score.

With CACGTACA, the binding signal was found to be 0.177 E-score. The sequence ATCGGAAA gave a binding signal of 0.048 E-score. As for ACGCGCTC, the figure is -0.0411 E-score; as for CATACACC, 0.126 E-score. To AAGGTAAG belongs -0.103 E-score. As for GATGGGCA, the figure is -0.171 E-score; as for ACAAGTGT, 0.146 E-score. Consider ACCGGTCT, for which the binding signal turned out to be 0.064 E-score. As for AATCACTC, the binding signal was -0.00406 E-score.

Turning to ACAAGTGG, the binding signal came out at 0.119 E-score.

CAATTTTA came in with a binding signal of 0.234 E-score. To ATTTGTAG belongs 0.311 E-score.
